From the supplement of paper PMC10126150 come the findings set out here.

The test system of this series is ATP. Briefly: switch fluorescence ratio, 500 uM ATP over buffer (Cy3 cluster intensity, sum of 5 cycles each) (fold (ratio)); higher = stronger signal-on switching upon ATP binding; sequences stand for … in TCGTCGGCAGCGTCAGATGTGTATAAGAGACAGTTTTTTTTTTTTTTTTTTTTTTTTT…TC. Particulars: aptamer strand: ATP DNA aptamer (quencher-CACCTGGGGGAGTATTGCGGAGGAAGG + anchor), 100 nM annealed; ATP concentration: 500 uM; one replicate. In a few lines:
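Switching-strand clusters labelled with Cy3 on a modified Illumina MiSeq flow-cell were annealed to 100 nM quencher-labelled ATP aptamer, imaged in selection buffer, and re-imaged after 15 min with 500 uM ATP at 22 °C. This was done over five cycles with NaOH stripping and re-annealing in between. The fluorescence ratio is summed target-cycle over summed buffer-cycle Cy3 intensity per cluster, averaged per switch-domain sequence, excluding clusters outside 100-1000 RFU.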

Sequences with one replicate were seen in a single cluster, so their values are uncertain.
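Also: ATP exposure 15 min at 22 °C before imaging.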

For AGACCCGCGA, the switch fluorescence ratio amounted to 2.95.

Take TATTTGTTC: the switch fluorescence ratio was 0.986.

As for TGACTAATAT, the switch fluorescence ratio is 0.982.

On to GGCGAAGGGA, for which the switch fluorescence ratio was 1.01.

Take CTGATGAGAT: the switch fluorescence ratio was 1.08.

Take ATTAATGAGT: the switch fluorescence ratio was found to be 1.

In the case of GCCTCTGAGC, the switch fluorescence ratio was determined as 1.

As for CCCCTTTTGT, the switch fluorescence ratio amounted to 1.01.

Consider TGGAGTTGAC, for which the switch fluorescence ratio amounted to 1.01.

In the case of TGCTGATCA, the switch fluorescence ratio amounted to 0.957.

Regarding TGGACAAGGA, the switch fluorescence ratio came to 1.02.

Take TTTAACAAGG: the switch fluorescence ratio turned out to be 1.04.

As to TTAGGAGAAC, the switch fluorescence ratio turned out to be 1.02.

Turning to TTCAACGTGT, the switch fluorescence ratio stood at 1.05.

As for ACACTAAGCT, the switch fluorescence ratio is 1.05.

As for CAGAGACAGT, the switch fluorescence ratio stood at 0.961.

In the case of CGTATTGCCT, the switch fluorescence ratio is 0.994.

As for TGTATACGGG, the switch fluorescence ratio worked out at 1.07.

In the case of AAGCTAGGTG, the switch fluorescence ratio is 1.56.

As to GTGATAGGAG, the switch fluorescence ratio came out at 1.02.

GTCAGAGTGC: the switch fluorescence ratio came out at 1.03.

Turning to AACGGGTGGA, the switch fluorescence ratio is 1.06.

In the case of ACCTACCCCC, the switch fluorescence ratio worked out at 1.91.

For the sequence AGCGACAAAA, the switch fluorescence ratio was 1.

Turning to GCACAGAGGG, the switch fluorescence ratio came out at 1.03.

For ATTTGATTAT, the switch fluorescence ratio is 0.959.

On to GCACGTACAG, for which the switch fluorescence ratio came out at 1.62.

GAGCGGGTAG: the switch fluorescence ratio is 1.04.

AAGAAAAATA: the switch fluorescence ratio was determined as 1.03.

For the sequence AGGAAAAGAT, the switch fluorescence ratio was 0.987.

In the case of ACGAGACCAT, the switch fluorescence ratio turned out to be 1.11.

TCGTTACTGG: the switch fluorescence ratio came out at 0.972.

Take AATGGTCCGT: the switch fluorescence ratio is 0.963.

For CGAGTGTGA, the switch fluorescence ratio was 1.03.

For GGTGTTGGGT, the switch fluorescence ratio came out at 1.

For the sequence TATGTCAAAA, the switch fluorescence ratio turned out to be 0.996.

TTTATCGGTC: the switch fluorescence ratio is 0.952.

GTTTATAATA: the switch fluorescence ratio was found to be 1.02.

Turning to CTTATCCGGT, the switch fluorescence ratio amounted to 1.02.

As to AACTGCGCTA, the switch fluorescence ratio is 1.9.

Take TCTGGGTATA: the switch fluorescence ratio came out at 1.01.

AACTAGCTAC: the switch fluorescence ratio was 1.42.

Regarding ATAGTGAGCA, the switch fluorescence ratio was determined as 0.986.

Take GCAATATTTG: the switch fluorescence ratio came out at 1.15.

On to TCTGTTCGAG, for which the switch fluorescence ratio worked out at 1.01.

TATATCGATT: the switch fluorescence ratio was 1.01.

As for ACTATTTTTA, the switch fluorescence ratio stood at 1.01.

Turning to TCCGTACTGG, the switch fluorescence ratio was determined as 1.06.

In the case of GGGTCGGTA, the switch fluorescence ratio is 0.984.

As for TAGAAAACA, the switch fluorescence ratio stood at 1.

Take TTTCCCCCGC: the switch fluorescence ratio is 3.41.

Turning to GGGGGCATGC, the switch fluorescence ratio amounted to 1.01.

Take TGATTCACCT: the switch fluorescence ratio worked out at 1.12.

As to AATTATGATA, the switch fluorescence ratio came to 0.961.

As to ACGACGCTGG, the switch fluorescence ratio is 2.5.

Take ATTCTAACGG: the switch fluorescence ratio came to 1.03.

Regarding TTAAGGGAGT, the switch fluorescence ratio worked out at 0.965.

AGCATGCTTA: the switch fluorescence ratio came out at 0.986.

As to GTCCTCGATG, the switch fluorescence ratio amounted to 1.02.

In the case of GCCGAAATTG, the switch fluorescence ratio turned out to be 1.

As for CCAGCGGATT, the switch fluorescence ratio came to 1.01.

As for CAAACCTGGT, the switch fluorescence ratio was determined as 1.07.

On to GCAGGTGACA, for which the switch fluorescence ratio stood at 1.26.

With TCCACCCGTT, the switch fluorescence ratio worked out at 1.26.

Regarding ATGGGTGTT, the switch fluorescence ratio came to 1.02.

As for GGGCATACGG, the switch fluorescence ratio stood at 1.94.

For TTAAGTAGGT, the switch fluorescence ratio came out at 0.973.

Take TTCTTAAACG: the switch fluorescence ratio turned out to be 1.02.

Regarding TCAGTTTGGG, the switch fluorescence ratio came out at 0.978.

For the sequence TTCCAGGGGC, the switch fluorescence ratio was determined as 1.02.

In the case of TTCCCCGCCT, the switch fluorescence ratio worked out at 2.46.

For ACCGGGACGG, the switch fluorescence ratio amounted to 1.03.

Consider TAACATGTGT, for which the switch fluorescence ratio amounted to 0.99.

In the case of TATAAATCCG, the switch fluorescence ratio was found to be 1.03.

As to TTATAACTTG, the switch fluorescence ratio is 1.01.

Regarding AACATTATAC, the switch fluorescence ratio is 1.11.

On to CAACCACTCG, for which the switch fluorescence ratio stood at 1.03.

As for AAGGTCCTAG, the switch fluorescence ratio was 0.949.

Consider CTCTCATGTT, for which the switch fluorescence ratio worked out at 0.994.
